In PMC4336329 (PLoS ONE, 2015):
The whole screen tested about 310,000 compounds, of which about 14,000 (4.5%) showed an effect of 50% or more. The effect is printed as a negative number. The list shows a part of the results.

The compounds below were run against human ether-à-go-go-related gene (hERG) potassium channel (human, UniProt Q12809) (assay: primary screen, population patch clamp on CHO cells stably expressing hERG).
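Further: peak tail current of the secondary pulse compared with the same well before compound.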

human ether-à-go-go-related gene (hERG) potassium channel, sequence (Q12809 whole entry, looked up): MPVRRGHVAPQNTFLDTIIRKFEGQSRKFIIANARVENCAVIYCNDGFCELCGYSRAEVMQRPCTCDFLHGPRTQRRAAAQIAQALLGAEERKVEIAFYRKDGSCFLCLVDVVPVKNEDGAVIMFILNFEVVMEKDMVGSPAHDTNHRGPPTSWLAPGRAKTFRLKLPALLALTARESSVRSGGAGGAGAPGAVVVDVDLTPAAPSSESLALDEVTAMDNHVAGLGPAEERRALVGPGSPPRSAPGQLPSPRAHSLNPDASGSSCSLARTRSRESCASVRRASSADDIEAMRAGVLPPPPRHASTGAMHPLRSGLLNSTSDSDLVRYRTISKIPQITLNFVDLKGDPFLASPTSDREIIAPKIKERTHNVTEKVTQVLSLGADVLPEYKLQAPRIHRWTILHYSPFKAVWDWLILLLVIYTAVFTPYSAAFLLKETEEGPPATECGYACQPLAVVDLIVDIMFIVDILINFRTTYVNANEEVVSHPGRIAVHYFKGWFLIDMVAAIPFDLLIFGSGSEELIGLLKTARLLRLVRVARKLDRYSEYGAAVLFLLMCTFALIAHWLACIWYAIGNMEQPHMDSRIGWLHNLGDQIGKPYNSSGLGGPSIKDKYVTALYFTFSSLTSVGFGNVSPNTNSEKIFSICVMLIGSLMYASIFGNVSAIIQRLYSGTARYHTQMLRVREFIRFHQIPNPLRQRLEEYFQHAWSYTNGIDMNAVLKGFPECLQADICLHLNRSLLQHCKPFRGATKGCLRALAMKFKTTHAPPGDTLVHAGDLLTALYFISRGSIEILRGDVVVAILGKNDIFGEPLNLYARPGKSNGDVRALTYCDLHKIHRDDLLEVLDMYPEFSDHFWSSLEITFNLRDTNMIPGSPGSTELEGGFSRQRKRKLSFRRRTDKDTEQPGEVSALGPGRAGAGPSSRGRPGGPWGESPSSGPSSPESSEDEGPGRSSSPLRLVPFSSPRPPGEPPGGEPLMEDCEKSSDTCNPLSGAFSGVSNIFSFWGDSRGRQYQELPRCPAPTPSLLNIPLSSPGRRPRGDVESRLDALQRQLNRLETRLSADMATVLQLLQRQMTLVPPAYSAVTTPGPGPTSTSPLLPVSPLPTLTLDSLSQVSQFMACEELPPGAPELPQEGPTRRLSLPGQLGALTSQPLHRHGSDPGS

Compound | hERG current change (%, negative = inhibition) at 10uM [%]
Cn1nccc1C(=O)Nc1sc2c(c1C#N)CCCC2 | 9.68
Cc1noc(C)c1COc1ccc(C(=O)NCCOc2ccccc2)cc1 | -35.8
COC(=O)C1=C(C)NC2=C(C(=O)CC(C)(C)C2)C1c1ccsc1 (stereo not shown) | -2.23
CCN(C(=O)COC(=O)c1ccccc1Nc1cccc(C)c1C)C1CCS(=O)(=O)C1 (stereo not shown) | 2.59
O=C(CCNS(=O)(=O)c1cccc2nsnc12)NC1CCCc2ccccc21 (stereo not shown) | 9.49
Cc1nc(SCC(=O)c2ccc(Cl)s2)c2oc3ccccc3c2n1 | 8.28
Cc1cc(C)c(C)c(OCCCOc2cccc3cccnc23)c1 | 2.72
COc1ccccc1-n1nnnc1SCC(=O)NCC1(N2CCOCC2)CCCCC1 | -39.8
COc1cc(NC(=O)c2ccccc2Cl)ccc1NC(=O)c1cccs1 | 5.17
CCN=C1S/C(=C\c2ccc(OCC)c(OC)c2)C(=O)N1CC | -14
CC1CCCCC12NC(=O)N(CC(=O)OCc1ccc(Br)cc1)C2=O (stereo not shown) | 12.5
O=C(COC(=O)CN1C(=O)C2CCCCC2C1=O)Nc1cc(S(=O)(=O)N2CCOCC2)ccc1Cl (stereo not shown) | -12.6
COc1ccc(S(=O)(=O)N(CC(=O)N/N=C/c2ccccc2C(=O)O)c2ccccc2OC)cc1 | 6.67
Cc1c(NC(=S)NC(=O)C(c2ccccc2)c2ccccc2)cccc1C(=O)O | -3.41
c1ccc(N2CCN(c3ccc4nncn4n3)CC2)nc1 | -36.3
COCc1cccc(NC(=O)Cc2cccc3ccccc23)c1 | 9.44
CC(C)OCCCNC(=O)C1CCN(S(=O)(=O)N2CCCC2)CC1 | 2.81
COC(=O)c1ccsc1NS(=O)(=O)c1ccccc1 | 19.3
CCOc1ccc(/C=N/NC(=O)c2cccc3ccccc23)c(OCC)c1 | 11.6
CCOc1ccccc1NC(=S)Nc1ccc(S(N)(=O)=O)cc1 | -6.61
Cc1cc(C)nc(N2CCN(C(=O)CCC(=O)Nc3nnc(CC(C)C)s3)CC2)n1 | -6.7
Cc1ccc(N(CC(=O)Nc2cc(C)ccc2C)S(C)(=O)=O)cc1 | 19.9
O=C(NC1CCCC1)c1cccc(Oc2ccccc2)c1 | -2.9

Compound | hERG current change (%, negative = inhibition) at 10uM [%]
O=C(c1cc2c(ccc3ccccc32)o1)N1CCN(c2ncc(C(F)(F)F)cc2Cl)CC1 | 6.46
COc1ccc(NC(=O)C(NC(=O)CNC(C)=O)c2ccc(C)cc2)cc1 (stereo not shown) | 12.6
CC(C)CC(NC=C1C(=O)OC(C)(C)OC1=O)C(=O)O (stereo not shown) | -5.42
CN1C(C(=O)Nc2ccc(OC(F)(F)F)cc2)=CC(c2ccco2)=NS1(=O)=O | 8.67
NS(=O)(=O)c1ccc(CCNC(=O)C2CCCCN2S(=O)(=O)c2ccccc2)cc1 (stereo not shown) | -6.11
Cc1ccc(NC(=O)CN2C(=O)NC(Cc3ccccc3)C2=O)cc1Cl (stereo not shown) | -2.75
CCN(CC)S(=O)(=O)c1ccc(-c2nnc(SCC(=O)Nc3ccc(OC)cc3)o2)cc1 | -12.8
O=C1C=C(c2cccc(Cl)c2O)C[C@@H](c2ccc3c(c2)OCO3)C1 | 11.8
COCCNC(=S)N1CCCC(CO)C1 (stereo not shown) | 2.05
COc1ccc(CCNC(=O)COc2ccc(-c3ccc(C#N)cc3)cc2)cc1 | 13.7
Cc1cc(C(=O)NCc2cccc(Cl)c2)c2ccccc2n1 | 15.8
c1csc(C2Nc3cccc4cccc(c34)N2)c1 | -17.2
O=C(CCCc1cccs1)NCCc1c[nH]c2ccccc12 | 6.58
CCCCN(C)CCCNC(=O)CN1C(=O)CSc2ccc(S(=O)(=O)N3CCOCC3)cc21 | 10.3
COc1ccccc1OCC(=O)OCC(=O)Nc1sccc1C(N)=O | 19.1
CCOC(=O)CSc1cc(C)nc(NC(C)=O)n1 | -0.404
COc1cc2c(cc1OC)C(Cc1ccc(O)cc1)N(C)CC2 (stereo not shown) | 0.573
CN1CCCCc2c1nc1c(c2N)CCCC1 | -4.15
O=C(NNC(=O)C1CC2CCC1C2)c1ccccc1 (stereo not shown) | 7.7
OCCC1CN(Cc2cccc3c2OCO3)CCN1C1CCCCC1 (stereo not shown) | -9.67
CN(C)c1ccnc2sc(C(=O)c3ccccc3)c(N)c12 | -11.2
C=CCN1C(=O)C(CCCC)NC1=S (stereo not shown) | 3.62
CN(C)/C=C/C(=O)C(F)(F)F | -2.46

Compound | hERG current change (%, negative = inhibition) at 10uM [%]
O=S1(=O)CCOC[C@H](CC2CCCCC2)N1Cc1cccc(F)c1 | 14.5
O=S(=O)(Nc1cccc(S(=O)(=O)N2CCOCC2)c1)c1ccc(Cl)s1 | -1.76
COc1ccccc1NC(=O)c1c(N=Cc2c(O)ccc3ccccc23)cnn1C | 18.4
COc1cc(OC)cc(C(=O)/C=C2\Sc3ccccc3N2C)c1 | 9.82
O=C(Nc1ccc2c(c1)OCCO2)C1CCN(c2cnccn2)CC1 | 4.73
CN(Cc1ccccc1)C(=O)Cn1nc(C(F)(F)F)c2c1CCC2 | -2.3
COc1cccc(NC(=O)Nc2ccc3nsnc3c2)c1 | 10.9
COc1cc(-c2c(C#N)c(N)nc3c2c(C)nn3-c2ccc(C)c(C)c2)cc(OC)c1OC | 13.3
COCCNC(=O)C(c1ccc(Cl)cc1)N(Cc1ccco1)C(=O)CCC(=O)Nc1ccccn1 (stereo not shown) | -14.1
O=C1C2C3C=CC(C3)C2C(=O)N1c1ccc2c(c1)OCO2 (stereo not shown) | 0.751
Fc1ccc(C2NC(=S)NC3=C2N2CCC3CC2)cc1 (stereo not shown) | -0.343
Cc1c(C(=O)NCc2cccs2)oc2ccc(S(=O)(=O)N3CCOCC3)cc12 | -1.95
O=C(O)Cc1ccc(C(=O)c2ccc(Cl)cc2Cl)s1 | -4.52
CCOC(=O)/C(C#N)=C1/SC(C)C(=O)N1c1ccc(Br)cc1 (stereo not shown) | -13.8
COc1ccc(OC)c(C(=O)CC2OC(=O)c3ccccc32)c1 (stereo not shown) | 2.88
COc1ccc(/C(N)=N/OC(=O)/C=C/c2ccccc2)cc1 | -37.2
CCOC(=O)c1ccc(Oc2nc(NC)nc(SC)n2)cc1 | -1.71
COCCn1c(COc2ccc(C)cc2)nc2ccccc21 | -11.9
NC(=O)CCn1c(C(=O)c2cc(Cl)c(N)c(Cl)c2)c2ccccc2[n+]1[O-] | 17.9
Cc1c(C)n(C)c2ccc([N+](=O)[O-])cc12 | -4.04
CC1CN(Cc2c(O)ccc3c2oc(=O)c2ccccc23)CC(C)O1 (stereo not shown) | 1.4
COc1ccc(C(CNC(=O)c2ccc(S(=O)(=O)Nc3ccc(F)cc3)cc2)N(C)C)cc1 (stereo not shown) | -8.57
COc1ccc(-c2nc(N)c(C#N)c(-c3cccnc3)c2C)cc1 | -12.4

Compound | hERG current change (%, negative = inhibition) at 10uM [%]
C/C(=N\OCC(=O)Nc1cc(C)cc(C)c1)c1ccc2c(c1)OCCO2 | -13
COc1ccc(Nc2ccnc(Nc3ccc(OC)cc3)n2)cc1 | -1.05
CCOC(=O)c1csc(NC(=O)CN2CCN(C)CC2)n1 | 19
COc1cccc(NC(=O)N2CCN(S(C)(=O)=O)CC2)c1 | 4.99
CC(=O)c1ccc(NC(=O)CCc2nnc3ccc(NCc4ccco4)nn23)cc1 | 9.4
CCOC(=O)c1cc(NC(=O)N2CCCCC2)c(C)nc1C | 16.6
Cc1cc(N2CCCC2)nc(N2C3CCC2CC(O)(c2ccc(F)cc2)C3)n1 (stereo not shown) | -48.3
c1csc(CSc2nnc3sc4ccccc4n23)c1 | -22.6
O=C(CCc1nc2ccccc2s1)N1CCN(S(=O)(=O)c2cccs2)CC1 | -66.7
COc1ccccc1NS(=O)(=O)c1ccc2oc(SC)nc2c1 | 2.84
CC(C)(C)OC(=O)N1CC(O)CC1C(=O)OCC(=O)c1ccc(Cl)cc1 (stereo not shown) | -16.4
O=C(C1CCCCC1)N(Cc1nc2sc3c(c2c(=O)[nH]1)CCCC3)Cc1cccs1 | 9.51
O=C(COC(=O)c1ccc(Cl)nc1)Nc1cc(S(=O)(=O)N2CCCCC2)ccc1Cl | -19.4
CCCCc1c(O)nc(SCC(=O)N2CCCCC2)[nH]c1=O | 17.1
Cc1cc(C(F)(F)F)c2c(n1)sc1c(O)cc(=O)[nH]c12 | 3.66
O=c1[nH]c(CCl)nc2cc(-c3ccc(Cl)cc3)sc12 | 13
O=C(CS(=O)c1ccc(F)cc1)N1CCOCC1 (stereo not shown) | 4.47
CNS(=O)(=O)c1cccc2nsnc12 | 7.34
COc1ccc2oc(-c3ccccc3)c(C(=O)N(C)C)c2c1 | -15.7
CCCN(CCC)C1CC(=O)N(Cc2ccccc2)C1=O (stereo not shown) | 9.19
N#Cc1cccc(NC(=O)CN2CCN(Cc3ccccc3)CC2)c1 | -65.1
CCC(=O)N1CCc2cc(Br)cc(S(=O)(=O)CCC(=O)NCC3CCCO3)c21 (stereo not shown) | 19.2
